Assay results taken from article PMC13083723 (Patterns, 2026).
The whole screen tested about 5,400 compounds, of which about 190 (3.5%) showed an effect of 50% or more. The list shows a part of the results. Residues, ends and D or L forms follow the SMILES beside them.

tested on: Vero-E6; experiment: primary screen, phospholipidosis by LipidTOX staining; higher = more effect of the substance; conditions: 10 µM
Method in brief: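 Single-concentration screen at 10 μM, with DMSO 0.1 v/v % and amiodarone 10 μM as controls. Read-out is LipidTOX Red phospholipid staining, which tolerates aldehyde fixation, in Vero-E6 cells.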

Row | SMILES | result_ITMP [%]
1 | Cc1cc(S(=O)(=O)[O-])c2c(C)ccc(C(C)C)cc1-2 | -3.22
2 | COc1cc(F)c(C(C)C)cc1-c1ccc(C(F)(F)F)cc1CN1C(=O)O[C@H](c2cc(C(F)(F)F)cc(C(F)(F)F)c2)[C@@H]1C | -5.76
3 | CO[C@H]1/C=C/O[C@@]2(C)Oc3c(C)c(O)c4c(O)c(c(/C=N/N5CCN(C)CC5)c(O)c4c3C2=O)NC(=O)/C(C)=C\C=C\[C@H](C)[C@H](O)[C@@H](C)[C@@H](O)[C@@H](C)[C@H](OC(C)=O)[C@@H]1C | -0.33
4 | CN(C)CCC1(c2ccc(Cl)cc2)Cc2ccccc2C(=O)O1 (racemic) | 27.5
5 | O=C(NCc1ccc(OC(F)(F)F)cc1)C1c2ccccc2C(=O)N1C1CCOCC1 (centres unmarked) | 3.14
6 | C[C@]12CC/C(=N\OCCN)C[C@@H]1C(=O)C[C@@H]1[C@@H]2CC[C@]2(C)C(=O)CC[C@@H]12 | -2.18
7 | CC(Oc1ccc(O)cc1)(P(=O)(O)O)P(=O)(O)O | 2.57
8 | C[C@H](N)C(=O)N[C@@H](CCC(N)=O)C(=O)O (H-Ala-Gln-OH) | -8.62
9 | CC(C)Nc1cc(-c2c[nH]c(C(=O)N[C@H](CO)c3cccc(Cl)c3)c2)c(Cl)cn1 | 0.57
10 | Cc1ccc(N(CC2=NCCN2)c2cccc(O)c2)cc1 | -2.18
11 | C=Cc1c(C)c2cc3nc(c(CC(=O)O)c4[nH]c(cc5nc(cc1[nH]2)C(C)=C5CC)c(C)c4C(=O)O)C(CCC(=O)O)C3C (centres unmarked) | -7.86
12 | CC(C)(C)c1ccc(/C=C/C(=O)Nc2ccc3c(c2)OCCO3)cc1 | -2.62
13 | CCc1ccc(CCOc2ccc(CC3SC(=O)NC3=O)cc2)nc1 (centres unmarked) | 2.36
14 | O=C(CCCCCCC(=O)Nc1cccnc1)NO | -3.54
15 | O=C1N[C@H](C(=O)O)CS1 | 4.13
16 | C[C@H](N[C@@H](CCc1ccccc1)C(=O)O)C(=O)N1CCC[C@H]1C(=O)O | 6.81
17 | NC(=O)N1CCC(CC(=O)N2CCC([C@H]3c4ncc(Br)cc4CCc4cc(Cl)cc(Br)c43)CC2)CC1 | -1.91
18 | CCc1noc(C)c1-c1[nH]c2ccccc2c1C(O)CN(C)C (centres unmarked) | -2.9
19 | O=C(Nc1cccnn1)N1CCC(=Cc2cccc(Oc3ccc(C(F)(F)F)cn3)c2)CC1 | 1.25
20 | O=C(Nc1cc(C(F)(F)F)cc(C(F)(F)F)c1)c1cc(Cl)ccc1O | 0.83
21 | CCNC(=O)[C@@H]1CCCN1C(=O)[C@H](CCCNC(=N)N)NC(=O)[C@H](CC(C)C)NC(=O)[C@@H](C)NC(=O)[C@H](Cc1ccc(O)cc1)NC(=O)[C@H](CO)NC(=O)[C@H](Cc1c[nH]c2ccccc12)NC(=O)[C@H](Cc1cnc[nH]1)NC(=O)[C@@H]1CCC(=O)N1 | -1.57

Row | SMILES | result_ITMP [%]
22 | CCCc1nc(C(C)(C)O)c(C(=O)OCc2oc(=O)oc2C)n1Cc1ccc(-c2ccccc2-c2nn[nH]n2)cc1 | 11.1
23 | OC[C@@H](O)[C@@H](O)[C@@H](O)CO | -6.6
24 | C1Cc2[nH]nc(-c3nnn[nH]3)c2C1 | -1.64
25 | Clc1ccc(C(OCCN2CCCCC2)c2ccccc2)cc1 (centres unmarked) | 63.9
26 | CCCCC1CCC(c2nc(-c3ccncc3)no2)CC1 (centres unmarked) | -10.2
27 | CCc1cc2cc(OC)c(OC)cc2c(Cc2ccccc2)n1 | -5.58
28 | Cc1c(-c2ccc(-c3ccccc3F)cc2)nc2ccc(F)cc2c1C(=O)[O-] | 5.08
29 | CN1C/C=C/CCOc2cccc(c2)-c2ccnc(n2)Nc2cccc(c2)C1 | -2.04
30 | CCCOCCn1c(=O)c(N2CCN(CCO)CC2)nc2cnc(-c3ccc(OC)nc3)cc21 | 2.28
31 | O=C(O)CCN(O)C(=O)CCCCCCCCC1CC1 | -4.53
32 | NC(=O)N[C@@H](CCC(=O)O)C(=O)O | -1.17
33 | CC(C)C(=O)OC[C@@]1(N=[N+]=[N-])O[C@@H](n2ccc(N)nc2=O)[C@H](OC(=O)C(C)C)[C@@H]1OC(=O)C(C)C | -2.06
34 | COCCCC/C(=N\OCCN)c1ccc(C(F)(F)F)cc1 | 48.9
35 | CN1C(=O)c2c(nn(Cc3ccc(-c4cccc(F)n4)cc3)c2Nc2ccccc2)N2C1=N[C@@H]1CCC[C@@H]12 | 37.5
36 | COC(=O)[C@H](c1ccccc1Cl)N1CCc2sccc2C1 | -3.68
37 | COc1ccc(C(=O)CCC(=O)O)c2ccccc12 | -7.01
38 | N/C(=N\Cc1ccccc1)NC(=O)c1nc(Cl)c(N)nc1N | 17.2
39 | O=C(COc1ccc(C(=O)c2ccccc2)cc1)NC1CCN(Cc2ccccc2)CC1 | 8.17
40 | Oc1ncc(N(CCCl)CCCl)c(O)n1 | 8.76
41 | Clc1ccccc1C(c1ccccc1)(c1ccccc1)n1cccn1 | -1.59
42 | NC(=O)c1ccccc1O | -3.89

Row | SMILES | result_ITMP [%]
43 | CC(C)(C)N1CCC(c2ccccc2)(c2ccccc2)CC1 | 4.66
44 | Brc1cc2c(cc1[C@@H]1Nc3ccccc3[C@@H]3C=CC[C@@H]31)OCO2.Brc1cc2c(cc1[C@H]1Nc3ccccc3[C@H]3C=CC[C@H]31)OCO2 | -7.91
45 | O=C(N[C@H]1CN2CCC1CC2)c1cc2cccc(Cl)c2s1 | 100
46 | CC(C)Cc1ccc(C(C)C(=O)NO)cc1 (centres unmarked) | -0.01
47 | O=C(O[C@H]1[C@H](OC(=O)c2cccnc2)[C@@H](OC(=O)c2cccnc2)[C@H](OC(=O)c2cccnc2)[C@@H](OC(=O)c2cccnc2)[C@H]1OC(=O)c1cccnc1)c1cccnc1 | -0.95
48 | O=C(O[C@H]1C[N+]2(CCCOc3ccccc3)CCC1CC2)C(O)(c1cccs1)c1cccs1 | -4.72
49 | O=C(NOCC1CC1)c1ccc(F)c(F)c1Nc1ccc(I)cc1Cl | 1.02
50 | COc1cc2c(c(OC)c1OC)-c1c(cc3c(c1OC)OCO3)C[C@@H](C)[C@@H](C)C2 | -6.33
51 | CC1(C)[C@@H]2C[C@H]1[C@@](C)(O)[C@@H](O)C2 | -2.34
52 | Nc1nc(F)nc2c1ncn2[C@@H]1O[C@H](COP(=O)(O)O)[C@@H](O)[C@@H]1O | 3.27
53 | O=C1[N-]C(=O)C(c2ccccc2)(c2ccccc2)N1 | -1.89
54 | CNc1nc(-c2ccc3c(N)n[nH]c3c2)cc(N2C[C@@H](C(=O)NC3CCCCC3)CC[C@H]2C)n1 | -1.68
55 | Cc1cc(Nc2cc(C)c(C#N)c(NC(C)CCCC(C)(C)O)n2)n[nH]1 (centres unmarked) | 6.88
56 | C[C@]12CC[C@H](O)C[C@H]1CC[C@@H]1[C@@H]2C[C@@H](O)[C@]2(C)[C@@H](C3=CC(=O)OC3)CC[C@]12O | -11
57 | CN1CCN(S(=O)(=O)c2ccc(-c3cnc(N)c(C(=O)Nc4cccnc4)n3)cc2)CC1 | -3.23
58 | COc1ccc(-c2coc3cc(O)ccc3c2=O)cc1 | -8.95
59 | CC(N)(C(=O)O)c1ccc(-c2nnn[nH]2)cc1 (centres unmarked) | -9.78
60 | C[C@H](Nc1ncnc2[nH]cnc12)c1cc2ccc(F)cc2nc1-c1ccccn1 [R4A_0002240_001 / SPE_A58947127] | 4.77
61 | Nc1nc(=O)n([C@@H]2O[C@H](CO)[C@@H](O)[C@@H]2F)cc1I | -2.6
62 | Oc1c(Br)cc(Br)c2cccnc12 | -2.78
63 | Nc1ccc2ncnc(NCCc3ccc(Oc4ccccc4)cc3)c2c1 | 1.1

Row | SMILES | result_ITMP [%]
64 | CC(CN(C)C)CN1c2ccccc2Sc2ccccc21 (centres unmarked) [R4A_0005516_001 / SPE_A49225603] | 81.1
65 | CN(C(=O)Cc1ccccc1)C(CN1CCCC1)c1ccccc1 (centres unmarked) | 6.1
66 | O=C(OCCN1CCOCC1)C1(c2ccccc2)CCCCC1 | -1.69
67 | CC(C)C[C@H](NC(=O)[C@H](Cc1ccccc1)NC(=O)c1cnccn1)B(O)O | -11
68 | COC(F)(F)C(Cl)Cl | -4.27
69 | CC(Cc1ccccc1)NCCC(c1ccccc1)c1ccccc1 (centres unmarked) | 33.2
70 | CNc1ncnc2c1ncn2[C@@H]1O[C@H](CO)[C@@H](O)[C@H]1O | -4.94
71 | Cc1ncc([N+](=O)[O-])n1C | 10
72 | O=C(c1ccc(F)cc1)C1CCN(CCCCc2ccccc2)CC1 | 1.69
73 | CC(C)(C)C(=O)OCOC(=O)[C@@H]1N2C(=O)[C@@H](/N=C/N3CCCCCC3)[C@H]2SC1(C)C | -0.91
74 | Cn1nccc1Nc1nccc(-c2ccn([C@H](CO)c3ccc(Cl)c(F)c3)c(=O)c2)n1 [R4A_0003897_001 / SPE_K86309810] | -3.82
75 | OC(CNc1ccccc1)Cn1c2ccc(Br)cc2c2cc(Br)ccc21 (centres unmarked) | -2.55
76 | CC(C)NC(=O)COc1cccc(-c2nc(Nc3ccc4[nH]ncc4c3)c3ccccc3n2)c1 | -0.28
77 | CS(=O)(=O)Nc1cc2occ(NC=O)c(=O)c2cc1Oc1ccccc1 | -8.41
78 | Cc1c(N)nc([C@H](CC(N)=O)NC[C@@H](N)C(N)=O)nc1C(=O)N[C@H](C(=O)N[C@@H](C)[C@H](O)[C@@H](C)C(=O)N[C@@H](C(=O)NCCc1nc(-c2nc(C(=O)NCCC[S+](C)C)cs2)cs1)[C@@H](C)O)C(O[C@H]1O[C@H](CO)[C@H](O)[C@@H](O)[C@H]1O[C@H]1O[C@H](CO)[C@@H](O)[C@H](OC(N)=O)[C@@H]1O)c1c[nH]cn1 (some centres unmarked) | 7.07
79 | N[C@@H](CC(=O)O)C(=O)O | 6.71
80 | N#Cc1ccccc1-c1cc(-c2ccccn2)cn(-c2ccccc2)c1=O | -1.57
81 | C[C@@H](O)[C@H]1C(=O)N2C(C(=O)O)=C(SCCNC=N)C[C@H]12 | 1.46
82 | c1ccc2c(c1)CCCC2C1=NCCN1 (centres unmarked) | -2.4
83 | COc1cccc(CCc2ccccc2OCC(CN(C)C)OC(=O)CCC(=O)O)c1 (centres unmarked) | 64.3
